Data: PubChem BioAssay AID360 (National Center for Advancing Translational Sciences (NCATS), 2006)
The whole screen tested about 48,000 compounds, of which about 550 (1.1%) were called active. Not shown: some 4% with an inconclusive outcome. No stated cut-off is given here; in the data, active means potency below about 15 µM; inconclusive means mostly about 16 µM to 33 µM; inactive means weaker than that. Some of the results follow.

Target: Lysosomal acid glucosylceramidase (Homo sapiens) (UniProt P04062)
Test: Glucocerebrosidase;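 further: the screen sought inhibitors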
Conditions: purified enzyme, resorufin glucoside fluorescence (screen aimed at inhibitors), 20 min
Summary of the method: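 Normal human glucocerebrosidase (0.2 nM final) was assayed with resorufin β-D-glucopyranoside (30 uM final) in 50mM citric acid/KH2PO4, 10mM sodium taurocholate, 0.01% tween-20, pH 5.9. Compounds were titrated; fluorescence (Ex 548, Em 600) read after 20 min at RT.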
Potency means the concentration at half of the fitted maximal effect.

UniProt P04062, sequence (P04062 whole entry, looked up): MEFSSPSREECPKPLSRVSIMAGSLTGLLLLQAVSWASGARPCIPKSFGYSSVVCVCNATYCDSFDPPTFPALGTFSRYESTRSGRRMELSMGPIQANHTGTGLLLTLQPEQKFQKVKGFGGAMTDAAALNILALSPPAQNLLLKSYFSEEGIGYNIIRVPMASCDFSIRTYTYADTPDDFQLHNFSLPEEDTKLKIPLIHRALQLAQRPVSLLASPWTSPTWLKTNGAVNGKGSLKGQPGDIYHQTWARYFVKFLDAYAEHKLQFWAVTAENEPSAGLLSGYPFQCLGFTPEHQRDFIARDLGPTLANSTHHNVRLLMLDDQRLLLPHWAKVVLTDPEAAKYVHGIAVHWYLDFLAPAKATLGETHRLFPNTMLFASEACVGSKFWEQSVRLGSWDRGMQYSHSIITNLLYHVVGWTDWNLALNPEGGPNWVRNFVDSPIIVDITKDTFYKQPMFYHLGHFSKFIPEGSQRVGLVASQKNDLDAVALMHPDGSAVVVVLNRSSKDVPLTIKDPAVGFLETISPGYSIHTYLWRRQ

Potency, inactive:
COc1ccc(CN2CCN(C)CC2)cc1OCc1ccccc1 > 76.9 µM, Cc1ccc(S(=O)(=O)NCC(=O)N(CC(=O)NCc2ccccc2)CC2CCCO2)cc1 (stereo not given) > 76.9 µM, COC(=O)c1ccccc1NC(=O)CSc1n[nH]c(CC(C)C)n1 > 76.9 µM, CCOc1ccc(C(C#N)N2CCOCC2)cc1OC (stereo not given) > 76.9 µM, COc1ccc(C(=O)CSc2nnc(C(CO)NC(=O)c3ccc(OC)cc3)n2C)cc1 (stereo not given) > 76.9 µM, c1ccc(-c2cc(N3CCCCC3)ncn2)cc1 > 76.9 µM, CCN(CC)/C(=N/O)NC(=O)NS(=O)(=O)c1ccc(C)cc1 > 76.9 µM, CNC(=O)c1cc2ccc(OC)cc2oc1=O > 76.9 µM, CCOC(=O)C1(C)NC(c2cc(OC)c(OC)c(OC)c2)C2C(=O)N(CC)C(=O)C21 (stereo not given) > 76.9 µM, CCC(=O)Nc1cccc(NC(=O)CSc2nnc(C3CC3)n2C)c1 > 76.9 µM, CCCCn1c(SCC(=O)c2cc(OC)ccc2OC)nc2cc(S(N)(=O)=O)ccc21 > 76.9 µM, CCOCCCn1c(=N)c(C(=O)NCc2ccc3c(c2)OCO3)cc2c(=O)n3cccc(C)c3nc21 > 76.9 µM, CCN(CC)CCCNC(=O)c1sc2nc(-c3ccc(F)cc3)cn2c1C > 76.9 µM, O=C(NCc1ccco1)c1nc(-c2ccccc2)n(-c2ccccc2)n1 > 76.9 µM, COc1ccc(S(=O)(=O)NCC(=O)N(CC(=O)NCC2CCCO2)c2cc(C)ccc2C)cc1 (stereo not given) > 76.9 µM, CC(CN1CCOCC1)OC(=O)COc1ccc(F)cc1 (stereo not given) > 76.9 µM, Cc1cccc(NC(=O)C2CCCN(C(=O)NC3CCCCC3)C2)c1C (stereo not given) > 76.9 µM, CCOC(=O)Nc1cc(C)ccc1OC > 76.9 µM, Cc1ccc(-c2nnn(CC(=O)Nc3ccc4nn(-c5ccccc5)nc4c3)n2)o1 > 76.9 µM, NC(=O)C1CCCN(S(=O)(=O)c2ccccc2)C1 (stereo not given) > 76.9 µM, CC1(C)CC(NS(=O)(=O)c2ccccc2)CC(C)(C)N1 > 76.9 µM, O=C1c2ccccc2C(=O)N1Cc1nc2ccccc2c(=O)n1CCCN1CCOCC1 > 76.9 µM, CN(C)C1NC(=O)c2cc(-c3ccccc3)sc2N1 (stereo not given) > 76.9 µM, CCOc1cccc(C2C(C(=O)c3ccc(C)o3)=C(O)C(=O)N2c2nccs2)c1 (stereo not given) > 76.9 µM, O=C(Nc1nccs1)c1cccc(S(=O)(=O)N2CCCCC2)c1 > 76.9 µM, COc1ccc(OC)c(NC(=O)NC2(C(F)(F)F)Oc3ccccc3O2)c1 > 76.9 µM, O=C(CSc1ncc(-c2ccccc2)nn1)NCc1ccco1 > 76.9 µM, CC(=O)N1CCC2(CC1)CC(=O)c1cc(OCC(=O)NCc3ccco3)ccc1O2 > 76.9 µM, Cc1ccc(C(C(=O)NC2CCCCC2)N(C(=O)c2csnn2)C2CCCC2)o1 (stereo not given) > 76.9 µM, CC(=O)Oc1c(S(=O)(=O)c2ccccc2)c(C)nn1C(C)(C)C > 76.9 µM, O=C(Cc1cccs1)Nc1ccc(S(=O)(=O)Nc2ncccn2)cc1 > 76.9 µM, O=C(Cc1cccs1)Nc1nncs1 > 76.9 µM, COc1ccc2c(Cl)c(C(N)=O)sc2c1 > 76.9 µM, COc1ccc(OC)c(-c2cc(C(=O)NCc3cccs3)no2)c1 > 76.9 µM, Cc1c2c(n3c(nc4ccccc43)c1C#N)N(Cc1cccnc1)CC2 > 76.9 µM, CC1Cc2cc(/C(O)=C3/C(=O)C(=O)N(CCN4CCOCC4)C3c3cccc(Cl)c3)ccc2O1 (stereo not given) > 76.9 µM, CCOC(=O)C1=C(CC)Nc2ccccc2N=C1NC(=O)Nc1ccccc1OC > 76.9 µM, O=C(COc1ccc(S(=O)(=O)NC2CCCCC2)cc1)NCC1CCCO1 (stereo not given) > 76.9 µM, CCOC(=O)c1c(C)c(C(=O)N2CCCCCC2)c(C)n1CC > 76.9 µM, COc1ccccc1N1CCN(C(=O)CSc2nnc(NC(=O)c3ccco3)s2)CC1 > 76.9 µM, O=C(O)CCn1c(C2CCCCC2)nc2ccccc21 > 76.9 µM, CCOC(=O)N1CCC(NC(=O)Cc2cn(C)c3ccccc23)CC1 > 76.9 µM, CCOC(=O)C1Cc2c([nH]c3ccccc23)CN1 (stereo not given) > 76.9 µM, c1cc(CSc2nnc(-c3ccc4c(c3)OCO4)o2)ccn1 > 76.9 µM, CCN(C)c1ccc(/C=N\n2nnnc2N)cc1 > 76.9 µM, CC1(C)Cc2ccccc2-c2nnc(SCC(=O)Nc3nc4ccccc4s3)n21 > 76.9 µM, Cc1ccc(C2c3sc(=O)[nH]c3SC3C(=O)NC(=O)C32)cc1 (stereo not given) > 76.9 µM, COCc1cc(C2C(C(=O)c3ccco3)=C(O)C(=O)N2CCOCCO)ccc1O (stereo not given) > 76.9 µM, CS(=O)(=O)N(CC(=O)Nc1ccc2c(c1)OCCO2)Cc1ccccc1 > 76.9 µM, O=C(NCc1ccccc1Cl)C1CCN(S(=O)(=O)N2CCCCC2)CC1 > 76.9 µM, CCCc1nc2ccccc2n2cc3c(=O)n(C)c(=O)n(C)c3c12 > 76.9 µM, CCn1c(=N)n(CC(=O)OC)c2ccccc21 > 76.9 µM, CC1CC(C)CN(Cc2nc3c(c(=O)n(C)c(=O)n3C)n2CCN2CCOCC2)C1 (stereo not given) > 76.9 µM, Cc1ccccc1NC(=O)C1Cc2ccccc2C(=O)O1 (stereo not given) > 76.9 µM, CCCSc1nnc(-c2ccccc2NC(=O)CC)c(=O)[nH]1 > 76.9 µM, CCCOc1ccc(/C(O)=C2/C(=O)C(=O)N(CCN(C)C)C2c2ccc(O)c(OC)c2)cc1 (stereo not given) > 76.9 µM, S=c1oc(-c2ccncc2)nn1CCc1ccncc1 > 76.9 µM, CN(c1ccc(C(=O)NCc2ccc3c(c2)OCO3)cc1)S(C)(=O)=O > 76.9 µM, COc1cc(C2C(C#N)=C(N)Oc3cc(C)n(CC4CCCO4)c(=O)c32)cc2c1OCO2 (stereo not given) > 76.9 µM, CCCCN(CC)CCCNC(=O)c1cc2cc3ccc(OC)cc3nc2o1 > 76.9 µM, COc1ccccc1C1/C(=C(/O)c2ccccc2)C(=O)C(=O)N1CC(C)O (stereo not given) > 76.9 µM, CCc1nnc(NC(=O)CSc2nnc(COc3ccccc3)n2Cc2ccccc2)s1 > 76.9 µM, COc1ccc(CNC(=O)C(NS(=O)(=O)c2ccc3c(c2)CCCN3C(C)=O)C(C)C)cc1 (stereo not given) > 76.9 µM, CCOc1cc(C)c(C(C)C)cc1S(=O)(=O)n1ccc(C)n1 > 76.9 µM, O=C1c2ccccc2NC(c2ccc(F)cc2)N1Cc1ccco1 (stereo not given) > 76.9 µM, COC(=O)c1[nH]c2ccc(C)cc2c1NC(=O)CN1CCN(Cc2ccccc2)CC1 > 76.9 µM, Cn1c(=O)cc(OCCCC(=O)N2CCN(c3ccccc3)CC2)c2ccccc21 > 76.9 µM, COc1cccc(C(=O)OC(C)CN2CCCC2)c1 (stereo not given) > 76.9 µM, CN(C)Cc1nc2ccccc2c(=O)n1Cc1nc(C(C)(C)C)cs1 > 76.9 µM, CC(C)(C)n1nnnc1C(c1ccccc1F)N(Cc1ccco1)CC1CCCO1 (stereo not given) > 76.9 µM, CC(C)C(=O)Nc1cccc2nsnc12 > 76.9 µM, COc1ccccc1CNC(=O)COC(=O)c1ccc(NC(N)=O)cc1 > 76.9 µM, COCCn1nnnc1CN1CCN(c2cccc(C(F)(F)F)c2)CC1 > 76.9 µM, CCC(C)(C)n1nnnc1C(c1ccncc1)N1CCN(c2cccc(OC)c2)CC1 (stereo not given) > 76.9 µM, Cc1cc(N)ccc1NC(=O)c1ccccc1 > 76.9 µM, CCOc1ccc(NCCC(=O)c2ccc3c(c2)OCO3)cc1 > 76.9 µM, O=C(C1=C(O)C(=O)N(CCc2ccccc2)C1c1cccnc1)c1ccco1 (stereo not given) > 76.9 µM, O=C(CSc1nnnn1Cc1ccccc1)Nc1ccc2c(c1)OCCO2 > 76.9 µM, O=C(CSCCO)N1CCc2ccccc21 > 76.9 µM, CC(CN1CCCCC1)OC(=O)c1ccc(Cl)cc1Cl (stereo not given) > 76.9 µM, COCCNC(=O)C(c1ccccc1C)N(CCOC)C(=O)Cn1nnc2ccccc21 (stereo not given) > 76.9 µM, Cc1ccc(N(CC(N)=O)C2SC(=O)NC2=O)cc1 (stereo not given) > 76.9 µM, Cn1cnc(S(=O)(=O)NCc2cccs2)c1 > 76.9 µM, CC(=O)Nc1cccc(NC(=O)CSc2nnnn2Cc2ccccc2)c1 > 76.9 µM, COc1cc(-c2ccc(NC(=O)CN3CCCCC3)c(OC)c2)ccc1NC(=O)CN1CCCCC1 > 76.9 µM, Cc1ccccc1C(=O)NC1CCN(Cc2nnnn2Cc2ccccc2)CC1 > 76.9 µM, O=C(CSc1nnnn1-c1ccccc1)N1CCc2ccccc21 > 76.9 µM, CCCn1c(N)c(C(=O)CSc2nnc(-c3ccco3)n2Cc2ccccc2)c(=O)[nH]c1=O, COc1ccc(-c2cc(C(=O)NCc3cccnc3)no2)cc1OC > 76.9 µM, O=C(Nc1ccc(Cl)cn1)C1CCCN1S(=O)(=O)c1ccc(Cl)cc1 (stereo not given) > 76.9 µM
